# Laboratory results reported in the supplement of paper PMC12217912.
# The list shows a part of the results. The full chains were built here from the parent and the listed change. Inactive controls read about 0.05.
# B1: TEV protease; numbered along this chain (parent)
# chain: MGESLFKGPRDYNPISSSICHLTNESDGHTTSLYGIGFGPFIITNKHLFRRNNGTLVVQSLHGVFKVKDTTTLQQHLVDGRDMIIIRMPKDFPPFPQKLKFREPQREERICLVTTNFQTKSMSSMVSDTSCTFPSGDGIFWKHWIQTKDGQCGSPLVSTRDGFIVGIHSASNFTNTNNYFTSVPKNFMELLTNQEAQQWVSGWRLNADSVLWGGHKVFMVKPEEPFQPVKEATQL
# Variants of: B1
# Assay: raw area under fraction-flipped curve 0-4 h after induction (AUC4h, not background-subtracted), DNA-recorder readout of cleavage of the substrate (dimensionless); higher = more cleavage of the substrate by the protease variant
# Conditions: temperature: 34 °C; time window: 0-4 h after rhamnose induction
# Protocol: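 In vivo DNA recorder in E. coli TOP10(DE3) ΔrhaA at 34 °C. Each TEVp single-site mutant (parent TEVp 0) is paired with a single-site variant of the 7-mer TEVs (canonical ENLYFQ|S). The substrate sits between flexible linkers in a Bxb1-sfGFP-TEVs-SsrA fusion, so cleavage stabilises Bxb1 and speeds flipping of a recombination array, read by NGS. The value is the raw area under the fraction-flipped curve over 0-4 h after rhamnose induction (AUC4h), with ≥20 reads per time point. It is not background-subtracted; inactive controls average about 0.047.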
# 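Also: Bxb1 expression induced with 0.2% (w/v) L-rhamnose at OD600 near 0.5, cultures sampled hourly, flipped fraction per protease–substrate barcode pair counted by paired-end Illumina sequencing.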
Variant,area with substrate ENLYFAS,area with substrate ENLYFES,area with substrate ENLYFIS,area with substrate ENLYFKS,area with substrate ENLYFMS,area with substrate ENLYFRS,area with substrate ENLYFSS,area with substrate ENLYFTS,area with substrate ENLYFVS,area with substrate ENLYFCS,area with substrate ENLYFDS,area with substrate ENLYFFS,area with substrate ENLYFHS,area with substrate ENLYFLS,area with substrate ENLYFNS,area with substrate ENLYFPS,area with substrate ENLYFWS,area with substrate ENLYFYS
N172G,0.0482,0.0462,0.0667,0.0658,0.054,0.0641,0.0607,0.0531,0.0568,,,,,,,,,
G202P,0.0679,0.0564,0.0691,0.0646,0.0623,0.0574,0.0589,0.0617,0.0697,0.0512,0.0587,0.0742,0.0611,0.0686,0.0592,0.0421,0.0794,0.0673
K120S,0.0579,0.0548,0.0573,,0.0646,0.0574,,0.0628,,0.0576,0.0631,0.0684,0.0626,0.056,0.0515,0.0586,0.0655,0.0557
F6I,0.0516,0.0662,0.0466,,0.0617,,0.0541,0.0499,,,,,,,0.0759,0.0552,,
F92I,0.0548,0.0621,,0.0559,0.0596,0.0689,,0.0668,,,,0.0596,,,,0.0577,,
V217F,0.0655,0.0561,0.0451,0.0766,0.0544,,,0.0385,0.0688,0.0589,,0.0566,,0.0669,,0.0705,0.0437,0.0561
W212L,0.0587,0.0652,0.0454,0.0625,0.065,0.0606,0.061,0.0642,,0.0507,0.03,0.0513,0.0503,0.0581,0.0642,0.0581,,
K68P,0.0591,0.0817,0.0716,,0.0679,,,0.0618,0.0331,0.0658,,0.065,0.062,,0.0695,0.0462,0.0448,
Q118K,0.0637,0.0597,,,,0.0714,,0.0597,0.0705,,,0.0477,,0.0746,0.0567,0.0668,0.0616,
I84T,0.0582,0.0474,0.06,,,,0.0593,,,0.0527,,,,,,0.0558,0.0723,0.0647
L235K,0.058,,0.0618,0.0676,0.0712,,,0.0574,0.0563,,0.0674,,,,,,,
P228M,0.0776,0.0602,0.0583,,0.0727,,,,0.0648,0.0512,,0.0722,,,0.0588,0.0752,,
W203M,0.0471,,0.0557,,0.0563,,,,,,,,,,0.0483,0.0308,0.0571,0.0445
R102P,0.0541,,0.0394,,0.0433,0.0454,0.0636,0.0544,0.0588,0.0495,,0.0509,0.0479,0.0685,0.0483,,,0.0442
D69Y,0.0629,0.065,,0.059,0.0606,,,0.061,,,0.0547,,,,0.0593,0.0629,,
P225N,0.055,,0.046,0.0549,0.0515,0.0452,0.0544,0.0554,,0.0665,,0.0676,,0.0605,0.0636,,0.0648,
